# According to PubChem BioAssay AID652104 (National Center for Advancing Translational Sciences (NCATS), 2013):
# Hit rate of the full screen: of about 410,000 compounds, about 7,200 (1.8%) were called active. The shares of active, inactive and inconclusive entries below differ from those in the screen. Calls come from the whole dose curve; as a rule, active = well fitted activation curve with a large enough effect; inconclusive = small, poorly fitted or top-dose-only effect, or another doubt; inactive = no such curve, though single readings can be large or run the other way. Potencies of inconclusive entries are left out as doubtful fits.
# Assay: qHTS of TDP-43 Inhibitors; note: nearly all actives have a fitted effect of over 50% in size; for growth rescue (activation): % of control where 0% means no effect
# Conditions: TDP-43 expressing yeast growth rescue, BacTiter-Glo, 24 h; growth rescue (activation): at 46.1 µM (top of the series) unless noted
# Summary of the method: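 Growth rescue of TDP-43-toxic yeast measured as ATP luminescence (BacTiter-Glo). Cells grown to mid-log in raffinose, induced in galactose at OD600=0.02, exposed to compound 24 hr at 30 deg C.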
# Potency is the fitted concentration of half-maximal effect; tags give direction and shape of the fitted curve.
Compound,Potency,growth rescue (activation)
c1ccc(-c2cnnc3ccccc23)cc1,"inconclusive [activator, partial curve]",
CN=C1S/C(=C\c2cccc(Cl)c2Cl)C(=O)N1C,active: 12.6 µM,
COc1ccc(-c2nc3sc(CCNS(=O)(=O)c4ccccc4)c(C)n3n2)cc1,"inconclusive [activator, full curve]",
CCCNC(=O)c1cc(C2CCCCN2S(=O)(=O)Cc2cccc(C(F)(F)F)c2)on1 (stereo not given),"inconclusive [activator, partial curve]",
CCCOc1ccc(C(=O)Nc2cc3c(cc2N2CCCCC2)n(C)c(=O)n3C)cc1,"inconclusive [activator, full curve, poor fit]",
CNNC(=S)NC1CC2CC1C1C=CCC21 (stereo not given),"inconclusive [activator, single point]",
CC(C)(C)NC(=S)N1CCC2CC1c1c(Cl)cccc12 (stereo not given),"inconclusive [activator, single point]",
C[C@]12CC[C@H](O)CC1=CCC1C2CC[C@@]2(C)C1CCC21OCCO1 (stereo not given in full),inactive,
COc1ccccc1CNC(=O)COCc1cc(-c2cccs2)on1,"inconclusive [activator, single point]",
CCN(C(=O)[C@@H]1CCCN1C(=O)c1cccs1)c1nc2cc(Cl)ccc2s1,active: 12.6 µM,
Clc1ccc(-c2ncc3ccccn23)c(Cl)c1,"inconclusive [activator, single point]",
Cc1oc(-c2ccccc2Cl)nc1CSCC(=O)NC1CCCC1,"inconclusive [activator, partial curve]",
COc1ccc(-n2ccnc(NCCc3ccccc3)c2=O)cc1OC,"inconclusive [activator, partial curve, poor fit]",
CCc1ccc(NC(=S)N(Cc2cccc(Br)c2)CC2CCC(C(=O)O)CC2)cc1 (stereo not given),"inconclusive [activator, single point]",
Fc1ccc(Nc2nc3ccccc3n3cnnc23)c(F)c1,active: 8.91 µM,
COCCNC(=O)c1snc2ccc(Cl)cc12,"inconclusive [activator, single point]",
O=C(NC1CCCCC1)C(c1cc2ccccc2o1)N1CCOCC1 (stereo not given),"inconclusive [activator, full curve]",
O=C(c1ccc(N2CCN(C(=O)c3cccc(F)c3)CC2)cc1)c1cccc(F)c1,"inconclusive [activator, partial curve]",
COc1ccc(NC(=O)c2ccc3ncsc3c2)cc1,active: 7.08 µM,
O=C1CCCCCN1C(=O)c1ccccc1,inactive,
CCCOc1ccc(N2C(=O)CC(SCCN)C2=O)cc1 (stereo not given),"inconclusive [activator, full curve]",
COc1ccccc1CNC(=O)c1sccc1C,"inconclusive [activator, partial curve]",
Cc1ccc(S(=O)(=O)Nc2ccc3nc(-c4cccc(Cl)c4)oc3c2)cc1,"inconclusive [activator, partial curve]",
O=C(C1CCCN(C2CC(=O)N(c3ccc(Cl)cc3)C2=O)C1)N1CCCC1 (stereo not given),"inconclusive [activator, partial curve]",

Compound,Potency,growth rescue (activation)
COC(=O)c1sccc1NC(=O)Nc1ccc(F)cc1F,"inconclusive [activator, full curve]",
Cc1cccc(C)c1NC(=O)CSc1nnc(-c2ccco2)c(-c2ccco2)n1,active: 22.4 µM,
CN(C(=O)c1cnc(N2CCN(c3ncccn3)CC2)c2ccccc12)c1ccc(Cl)cc1,active: 10 µM,
CN1CCN(CCNC(=O)c2cnn(-c3ccc(Cl)cc3)c2C2CCN(C(=O)OC(C)(C)C)CC2)CC1,"inconclusive [activator, partial curve]",
CCOc1ccc(-c2nonc2NC(=O)c2oc3ccc(CC)cc3c2C)cc1,inactive,
Cc1ccc2oc(-c3ccc(Cl)c(NC(=O)c4cc5ccccc5o4)c3)nc2c1,"inconclusive [activator, partial curve]",
COc1cc(C(=O)OCC(=O)Nc2ccc3c(c2)OC(F)(F)O3)ccc1OCc1c(C)noc1C,active: 35.5 µM,
COc1ccc(Cl)cc1NC(=O)c1cnc2sc(N3CCOCC3)nn2c1=O,inactive,
COc1ccc(Cn2c(CO)cnc2SCc2ccc(C)cc2)cc1,inactive,
CCc1ccccc1N1C(=O)[C@@H]2Cc3ccccc3CN2C1=O,"inconclusive [activator, partial curve]",
Cc1ccccc1NC(=O)c1ccc(OCc2c(C)noc2C)cc1,"inconclusive [activator, single point]",
COC(=O)c1cc(C(=O)c2ccc(Cl)cc2Cl)cn1C,active: 11.2 µM,
CCCOC(=O)c1ccc(Oc2cn[nH]c2-c2ccc(OCC(=O)NN)cc2O)cc1,"inconclusive [activator, partial curve]",
CCOc1cc(OCC)cc(C(=O)N2CCC[C@H]2C(=O)N2CCC[C@H]2C(=O)NCc2cccc(OC)c2)c1,inactive,
CC1(Cc2cccc(C(N)=O)c2)C(=O)Nc2c(Cl)cccc21 (stereo not given),inactive,
O=C1C(Cl)=C(N2CCCC2)C(=O)N1c1ccc(F)cc1,"inconclusive [activator, single point]",
Oc1ccccc1-c1cc(-c2ccccc2Cl)[nH]n1,"inconclusive [activator, partial curve]",
COc1cc(OC)c(NC(=O)Cn2ncn3c(cc4cc(C)ccc43)c2=O)cc1Cl,inactive,
Cc1cccc(NC(=O)c2nc(-c3ccccc3)n(-c3ccccc3)n2)c1C,"inconclusive [activator, single point]",
COc1ccccc1CNC(=O)Cn1cc2c(n1)-c1c(oc(C(=O)N3CCOCC3)c1C)CC2,"inconclusive [activator, partial curve]",
CCOC(=O)Oc1ccc2c(=O)c(Oc3cc(C)cc(C)c3)coc2c1,"inconclusive [activator, single point]",
CC1=NOC(=O)/C1=C/c1ccc(O)c(Br)c1,,inconclusive: 47.4% [activator]
Cc1ccc(-c2cc(-c3ccccc3Cl)c(C#N)c(N)n2)o1,"inconclusive [activator, single point]",
Clc1ccccc1OCc1nnc(-c2ccccc2Br)o1,inactive,

Compound,Potency,growth rescue (activation)
COc1ccc(-c2nc(C#N)c(N3CCN(c4ccccc4)CC3)o2)cc1,inactive,
O=C(c1cnn(-c2ccccc2)c1)c1ccccc1O,"inconclusive [activator, partial curve]",
CCc1cccc(C)c1NC(=O)CSc1nc2ccccc2nc1Cc1ccccc1,inactive,
C/C(=N\NC(=S)NCc1ccccc1)c1ccc(Br)cc1,"inconclusive [activator, partial curve]",
COc1cccc(C(NC(C)=O)c2nc(-c3ccc4ccccc4c3)cs2)c1 (stereo not given),"inconclusive [activator, single point]",
Cc1ccc(OCCCC(=O)Nc2ccc3c(c2)OCCO3)cc1,"inconclusive [activator, single point]",
CC1(C(=O)NS(=O)(=O)c2ccccc2)CCN1C(=O)c1ccc(C2CCCCC2)cc1 (stereo not given),"inconclusive [activator, partial curve]",
COc1ccc(/C=C/C(=O)OCC(=O)NC2CCCCCC2)cc1,"inconclusive [activator, partial curve]",
Cc1ccc(S(=O)(=O)Nc2ccccc2CNc2cccc(C)n2)cc1,"inconclusive [activator, single point]",
CCOc1ccc(/C=C/C(=O)Nc2ccc3nc(N(CC)CC)cc(C)c3c2)cc1OC,"inconclusive [activator, partial curve]",
O=C(/C=C/c1ccc([N+](=O)[O-])cc1)NCc1cccnc1,"inconclusive [activator, single point]",
COc1ccccc1-c1csc(C(O)c2ccc(F)cc2)n1 (stereo not given),"inconclusive [activator, single point]",
c1cn2cc(-c3ccc4c(c3)OCO4)nc2s1,"inconclusive [activator, partial curve, poor fit]",
O=C1OC(c2cc(Br)c(O)c(Br)c2)c2ccccc21 (stereo not given),"inconclusive [activator, full curve, poor fit]",
COc1ccc(CCNS(=O)(=O)c2ccc3c(c2)OCCO3)cc1,"inconclusive [activator, single point]",
CC(C)(C)c1ccc(OCCC(=O)OCC(=O)NC2CC2)cc1,active: 12.6 µM,
CCN1C(=O)[C@@H]2[C@@H](c3ccc(-c4ccc(F)cc4)c(OC)c3)N3CCCC[C@@]3(C(=O)OC)[C@@H]2C1=O,"inconclusive [activator, partial curve]",
Cn1cnc([N+](=O)[O-])c1S(=O)(=O)c1ccc(Cl)cc1,active: 14.1 µM,
Cn1ncc(Cl)c1C(=O)N1CCN(c2cccc(Cl)c2)CC1,active: 14.1 µM,
CN(C1CCCCC1)S(=O)(=O)c1ccc(NC(=O)c2ccco2)cc1,"inconclusive [activator, single point]",
c1ccc(-c2ccccc2-c2nc(-c3cccnc3)no2)cc1,"inconclusive [activator, partial curve]",
Cc1ccc(CN(C#N)c2nc(C)cc(C)n2)cc1,active: 35.5 µM,
